Screen size: about 310,000 compounds; about 14,000 (4.5%) showed an effect of 50% or more. The effect is printed as a negative number. The list shows a part of the results.
Each molecule was assayed against human ether-à-go-go-related gene (hERG) potassium channel (human, UniProt Q12809) (assay: primary screen, population patch clamp on CHO cells stably expressing hERG).
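Note: peak tail current of the secondary pulse compared with the same well before compound.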

human ether-à-go-go-related gene (hERG) potassium channel, sequence (Q12809 whole entry, looked up): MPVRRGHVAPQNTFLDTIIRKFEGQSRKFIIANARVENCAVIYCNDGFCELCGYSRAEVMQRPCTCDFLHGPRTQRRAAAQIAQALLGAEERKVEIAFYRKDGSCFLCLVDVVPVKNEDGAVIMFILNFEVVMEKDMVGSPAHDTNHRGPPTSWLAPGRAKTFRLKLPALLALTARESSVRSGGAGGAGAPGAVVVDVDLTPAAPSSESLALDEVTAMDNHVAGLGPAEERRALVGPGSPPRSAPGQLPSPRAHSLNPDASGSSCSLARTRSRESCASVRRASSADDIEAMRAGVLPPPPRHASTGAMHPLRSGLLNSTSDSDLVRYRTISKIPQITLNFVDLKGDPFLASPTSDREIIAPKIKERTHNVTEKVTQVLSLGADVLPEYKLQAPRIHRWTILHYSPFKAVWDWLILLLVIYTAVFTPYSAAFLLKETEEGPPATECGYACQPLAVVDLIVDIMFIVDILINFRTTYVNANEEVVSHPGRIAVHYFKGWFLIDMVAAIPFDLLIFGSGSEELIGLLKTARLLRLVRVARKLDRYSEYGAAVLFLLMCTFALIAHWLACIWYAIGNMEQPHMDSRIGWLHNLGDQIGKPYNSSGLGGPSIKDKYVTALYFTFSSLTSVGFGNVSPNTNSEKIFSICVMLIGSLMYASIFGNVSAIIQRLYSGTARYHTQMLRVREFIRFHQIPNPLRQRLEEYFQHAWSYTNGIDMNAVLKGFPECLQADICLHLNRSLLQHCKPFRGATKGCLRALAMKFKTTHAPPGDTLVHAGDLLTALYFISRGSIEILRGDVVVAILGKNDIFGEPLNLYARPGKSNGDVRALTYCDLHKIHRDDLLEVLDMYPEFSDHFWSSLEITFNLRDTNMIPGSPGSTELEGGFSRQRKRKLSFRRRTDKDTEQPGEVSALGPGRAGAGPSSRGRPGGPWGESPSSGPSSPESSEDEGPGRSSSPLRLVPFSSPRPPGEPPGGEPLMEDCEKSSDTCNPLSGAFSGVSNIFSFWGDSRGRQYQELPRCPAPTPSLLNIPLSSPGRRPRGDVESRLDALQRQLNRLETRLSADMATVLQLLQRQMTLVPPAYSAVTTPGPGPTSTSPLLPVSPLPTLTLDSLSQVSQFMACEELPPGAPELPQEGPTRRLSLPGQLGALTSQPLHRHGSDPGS

First: O=C(Nc1cccc(S(=O)(=O)N2CCCCC2)c1)C1=NN(c2ccccc2)C(=O)CC1
Second: Cc1c(NC(=O)COC(=O)c2ccc(F)c(S(=O)(=O)N3CCOCC3)c2)c(=O)n(-c2ccccc2)n1C
The “hERG current change (%, negative = inhibition) at 10uM” value of the first is lower: -36.4% for the first, 9.22% for the second.

Going from `CC(=O)c1c(C)[nH]c(C(=O)NCCc2c[nH]c3ccccc23)c1C` to `CCOC(=O)c1c(C)[nH]c(C(=O)OCC(=O)Nc2ccc(Cl)cn2)c1C`, the “hERG current change (%, negative = inhibition) at 10uM” value falls from 12.3% to 6.52%.

First: O=C(NN=C1CCCC1)c1ccc(O)cc1O
Second: CC(C)OC(=O)c1c(N)sc2c1CCCC2
The “hERG current change (%, negative = inhibition) at 10uM” value of the first is higher: 6.98% for the first, 0.961% for the second.

Compared with `O=C(Cc1ccccc1)Nc1ccc(N2CCOCC2)cc1N1CCOCC1`, `O=C(CN1CCc2ccccc2C1)Nc1ccccc1F` is higher in “hERG current change (%, negative = inhibition) at 10uM” value: -0.646% for the first, 3.13% for the second.

Going from `COc1ccc(Cl)cc1NC(=O)c1[nH]nc(OC)c1[N+](=O)[O-]` to `O=C(Nc1cc(Cl)ccc1Oc1ccccc1)C1=COCCO1`, the “hERG current change (%, negative = inhibition) at 10uM” value rises from -13.3% to 9.97%.

Compared with `CC(C)(CN1CCc2ccccc2C1)NS(=O)(=O)c1ccccc1`, `CC(C)(O)C(=O)NN(C(=O)c1ccccc1)c1cccc(Br)c1` is higher in “hERG current change (%, negative = inhibition) at 10uM” value: -1.6% for the first, 10.4% for the second.

Going from `CCOc1ccc2nc(NC(=O)CCC(=O)c3cccs3)sc2c1` to `O=C(CNC(=O)Cc1ccccc1)NCc1cccs1`, the “hERG current change (%, negative = inhibition) at 10uM” value rises from -2.61% to 9.32%.

First: COc1cc(/C=C/c2ccc3cccc([N+](=O)[O-])c3n2)ccc1OCC(=O)O
Second: COc1cccc(/C=C(/C#N)c2ccc(Cl)cc2)c1OCc1cccc(C(=O)O)c1
The “hERG current change (%, negative = inhibition) at 10uM” value of the first is lower: 15.1% for the first, 26.1% for the second.

Going from `Cc1ncoc1C(=O)N1CCCC(C(=O)c2ccc(-c3ccccc3)cc2)C1` (centres unmarked) to `Cc1nnsc1C(=O)N1CCCC(C(=O)c2ccc(C(F)(F)F)cc2)C1` (centres unmarked), the “hERG current change (%, negative = inhibition) at 10uM” value falls from -5.8% to -39%.

First: C[N+](C)(C)CC#CCN1CCCC1=O.[I-]
Second: Cc1nc(N2CCOCC2)[nH]c(=O)c1CCC(C)C
The “hERG current change (%, negative = inhibition) at 10uM” value of the first is higher: 4.02% for the first, -6.57% for the second.

Compared with `CC(=O)Nc1ccc(S(=O)(=O)N(C)CC(=O)OCC(=O)N(C)c2ccccc2)cc1`, `Cc1cc(=O)[nH]c(SCC(=O)Nc2ccc(S(N)(=O)=O)cc2)n1` is lower in “hERG current change (%, negative = inhibition) at 10uM” value: 22% for the first, 6.29% for the second.

Compared with `CCCCn1c(N)c(N(CCC(C)C)C(=O)COC(=O)c2ccco2)c(=O)[nH]c1=O`, `CCOC(=O)CC(=O)CSc1nc2sc(C)cc2c(=O)n1Cc1ccco1` is lower in “hERG current change (%, negative = inhibition) at 10uM” value: 17.5% for the first, -51.5% for the second.

Going from `Cc1cccc(COc2ccc(/C=C3/C(=O)N(C)C(=S)N3C)cc2)c1` to `Cc1cccc(OCc2nnc(-c3ccc(F)cc3)o2)c1`, the “hERG current change (%, negative = inhibition) at 10uM” value falls from 15.7% to -12.8%.

Compared with `COc1ccc(Cl)cc1NC(=O)C1CCCN(c2ncnc3c2nc2n3CCCCC2)C1` (centres unmarked), `CCc1ccccc1N(CC)C(=O)C1CCN(c2ncnc3c2nc2n3CCCCC2)CC1` is higher in “hERG current change (%, negative = inhibition) at 10uM” value: -37.6% for the first, -25.1% for the second.

Compared with `CCc1c(C)sc(NC(=O)c2ccoc2C)c1C(N)=O`, `CCOC(=O)N1CCN(C(c2ccc(Cl)cc2)c2sc3nc(C)nn3c2O)CC1` (centres unmarked) is lower in “hERG current change (%, negative = inhibition) at 10uM” value: -5.04% for the first, -42.9% for the second.

First: Cc1c(-c2nnc(SCC(=O)O)n2-c2ccccc2Br)nnn1-c1ccccc1.O
Second: COc1ccccc1NC(=O)CSc1nnc(Cn2nnc(-c3ccccc3)n2)n1-c1ccccc1
The “hERG current change (%, negative = inhibition) at 10uM” value of the first is higher: 7.3% for the first, -5.02% for the second.

Compared with `COc1ccc(OC)c(NC(=O)C(=S)NC2CCCCC2)c1`, `COc1ccc(NC(=S)SC)cc1OC` is lower in “hERG current change (%, negative = inhibition) at 10uM” value: 22.3% for the first, 6.44% for the second.

Going from `CCn1ncc(/C=N/NC(=O)c2ccc3c(c2)OCO3)c1C` to `COc1ccc(/C=N/NC(=O)c2cc(-c3cccnc3)nc3ccccc23)c(OC)c1`, the “hERG current change (%, negative = inhibition) at 10uM” value falls from 11.5% to 7.71%.

First: C[C@H](NC(=O)c1nc[nH]c1C(=O)NCC(=O)OCc1ccccc1)c1ccccc1
Second: COC(c1ccccc1)c1nnc(CCC(=O)NCCCc2ccccc2)o1 (centres unmarked)
The “hERG current change (%, negative = inhibition) at 10uM” value of the first is lower: -10% for the first, 9.44% for the second.

Going from `CCC1C(=O)NCCN1C(=O)c1ccc2nc(Cc3cccc(Cl)c3)oc2c1` (centres unmarked) to `COc1ccccc1CNC(=O)CCSCc1cccc(Cl)c1`, the “hERG current change (%, negative = inhibition) at 10uM” value rises from -18.6% to -9.48%.

First: O=C1NC(c2ccco2)Nc2ccccc21 (centres unmarked)
Second: O=C(Nc1c2c(nn1-c1ccccc1)CS(=O)C2)c1ccco1 (centres unmarked)
The “hERG current change (%, negative = inhibition) at 10uM” value of the first is higher: 8.81% for the first, 7.5% for the second.

Compared with `N#C/C(=C/c1ccc(N2CCCCCC2)o1)c1ccc(Cl)cc1`, `O=C(Nc1nc(-c2ccc(Cl)cc2)cs1)C1=COCCO1` is lower in “hERG current change (%, negative = inhibition) at 10uM” value: -3.68% for the first, -15.7% for the second.

Going from `COc1ccc(CN2Cc3cccc4c3[C@@H](CC2=O)[C@H](O)[C@H](O)C4)cc1` to `COc1ccc(C2=Nc3ccc(Br)cc3C(c3ccccc3)N2CC(=O)NN)cc1` (centres unmarked), the “hERG current change (%, negative = inhibition) at 10uM” value falls from 24.1% to -38.9%.

Going from `CSc1nc2ccc(Br)cc2[nH]1` to `Cc1ccc(CSc2nc(N)cc(=O)[nH]2)cc1`, the “hERG current change (%, negative = inhibition) at 10uM” value rises from 10.9% to 14.2%.

First: O=P(OC1CCCCC1)(OC1CCCCC1)C(O)c1ccc(Cl)cc1Cl (centres unmarked)
Second: Cc1ccc(C(=O)NCCN2CCOCC2)cc1S(=O)(=O)N1CCCCC1
The “hERG current change (%, negative = inhibition) at 10uM” value of the first is higher: -11.4% for the first, -20.7% for the second.

First: Cc1ccn2c(c1)nc(=S)n2C(=O)c1ccco1
Second: Cc1nc(N2CCN(C(=O)c3ccco3)CC2)c(C#N)c2c1CCCC2
The “hERG current change (%, negative = inhibition) at 10uM” value of the first is lower: -0.888% for the first, 3.21% for the second.

Compared with `O=C(CCc1ccccc1)Nc1cccc(NC(=O)CCc2ccccc2)c1`, `O=C(Nc1ccccc1C(=O)Nc1cccnc1)c1ccccc1` is higher in “hERG current change (%, negative = inhibition) at 10uM” value: -13.4% for the first, 0.583% for the second.

Compared with `CCCCOC(=O)Nc1cc(OC)c(Cl)cc1OC`, `C=CCn1c(-c2cc(OC)c(OC)c(OC)c2)n[nH]c1=S` is higher in “hERG current change (%, negative = inhibition) at 10uM” value: -10.5% for the first, 10.5% for the second.

Going from `O=C(Nc1cccc2ccccc12)OCc1cncs1` to `O=C(Nc1ccccc1)Nc1cccc(Cl)c1Cl`, the “hERG current change (%, negative = inhibition) at 10uM” value rises from -8.17% to 2.86%.

First: COC(=O)c1sc(S(=O)(=O)NCCC(=O)O)c(C(=O)OC)c1C
Second: CCCN(CCC)CCOc1cc(C)ccc1C(C)C.O=C(O)C(=O)O
The “hERG current change (%, negative = inhibition) at 10uM” value of the first is higher: 5.17% for the first, -44.2% for the second.

Compared with `N#Cc1ccc(Oc2nc(C#N)cc(-c3ccccc3)n2)cc1`, `CCc1nn(-c2cc(Oc3ccccc3)nc(-c3ccccc3)n2)c(N)c1C#N` is higher in “hERG current change (%, negative = inhibition) at 10uM” value: -8.65% for the first, 16.8% for the second.

First: CC(C)C(C)NC(=O)CN1C(=O)NC2(CCc3ccccc3C2)C1=O (centres unmarked)
Second: CC1=C(C(=O)OC(C)C)C(c2cccnc2)C2=C(CCCC2=O)N1 (centres unmarked)
The “hERG current change (%, negative = inhibition) at 10uM” value of the first is higher: 13.1% for the first, 6.07% for the second.

Compared with `CCOc1nc(Nc2ccc(Cl)cc2)nc(OCC)n1`, `Cl.Cn1nnnc1SCCNCc1ccc(Cl)cc1` is lower in “hERG current change (%, negative = inhibition) at 10uM” value: 4.01% for the first, -9.62% for the second.

First: O=C(Nc1cccc(-c2nnc(-c3ccccc3)o2)c1)c1ccc(Br)o1
Second: O=C(Nc1ccc(Nc2ccccc2)cc1)c1cccc(F)c1
The “hERG current change (%, negative = inhibition) at 10uM” value of the first is lower: -30.8% for the first, 18.6% for the second.

Going from `O=C(C[n+]1cc(-c2ccc(F)cc2)n2c1CCC2)c1cccs1.[Br-]` to `Cc1ccc(-c2cnc(SCC(=O)N3CCCc4ccccc43)n2C)cc1`, the “hERG current change (%, negative = inhibition) at 10uM” value falls from 2.11% to -50.8%.

First: N#C/C(=C(\O)c1cc(Cl)sc1Cl)c1nc2ccccc2[nH]1
Second: C=CCN(c1ccccc1)S(=O)(=O)c1c(C)[nH]c(=O)[nH]c1=O
The “hERG current change (%, negative = inhibition) at 10uM” value of the first is higher: 17.1% for the first, 2.84% for the second.

First: N#Cc1ccc(CSc2nnc(NC(=O)C3CC(=O)N(c4ccc5c(c4)OCCO5)C3)s2)cc1 (centres unmarked)
Second: O=C(c1ccccc1F)c1cc2c(cc1[N+](=O)[O-])OCCO2
The “hERG current change (%, negative = inhibition) at 10uM” value of the first is higher: 3.99% for the first, -12.5% for the second.

First: CN(c1ccccc1)c1nc(N)c([N+](=O)[O-])c(Nc2ccccc2F)n1
Second: Cn1c(SCC(=O)Nc2ccccc2Oc2ccccc2)nnc1C1CC1
The “hERG current change (%, negative = inhibition) at 10uM” value of the first is higher: 23% for the first, -36% for the second.

Compared with `CCn1c2ccccc2c2cc(NC(=O)c3ccccc3-c3ccccc3C(=O)O)ccc21`, `O=C1c2cccc(OCC(=O)N3N=C(c4cccs4)CC3c3ccc(F)cc3)c2CCN1Cc1ccccc1` (centres unmarked) is lower in “hERG current change (%, negative = inhibition) at 10uM” value: 11.2% for the first, -7.69% for the second.

First: O=C1CCCC2=C1C(c1cccs1)n1nc(SCc3ccccc3F)nc1N2 (centres unmarked)
Second: Cc1cccn2c(=O)c3cc(C#N)c(=NC(=O)c4cccnc4)n(CC4CCCO4)c3nc12 (centres unmarked)
The “hERG current change (%, negative = inhibition) at 10uM” value of the first is higher: 3.74% for the first, -51.1% for the second.

First: CCc1noc(C)c1C(=O)N1CCN(S(=O)(=O)c2ccc(Br)cc2)CC1
Second: COc1ccc(CN2CCN(C(=O)c3cc(C4CC4)nn3-c3ccccc3)CC2)cc1F
The “hERG current change (%, negative = inhibition) at 10uM” value of the first is higher: -30.2% for the first, -48.6% for the second.

Compared with `COc1ccc(Cl)cc1NC(=O)C1(c2cccs2)CCOCC1`, `O=C(COc1ccc(Cl)cc1Cl)NCCSc1ccc(Cl)cc1` is higher in “hERG current change (%, negative = inhibition) at 10uM” value: -17.8% for the first, 10.6% for the second.

Going from `Cc1[nH]nc2c1C(c1cn[nH]c1-c1ccc(F)cc1)C(C#N)=C(N)O2` (centres unmarked) to `CC(C)NC(=O)COC(=O)/C=C/c1ccc(F)cc1`, the “hERG current change (%, negative = inhibition) at 10uM” value falls from 13.4% to -1.62%.

First: O=C(OCc1ccccn1)c1ccc(COc2ccccc2Cl)o1
Second: O=C(CSc1nnc(-c2ccccn2)n1Cc1ccccc1)NC1CCCC1
The “hERG current change (%, negative = inhibition) at 10uM” value of the first is higher: 10.1% for the first, -9.99% for the second.

With `CCCCC(CC)CNC(=O)C1CC=CCC1C(=O)O` (centres unmarked) the “hERG current change (%, negative = inhibition) at 10uM” value was 6.87%.
